B1: REGN9278-M3190 (conjugate)
heavy: QVQLQQWGAGLLKPSETLSLTCAVYGGSFSGYYWSWIRQPPGKGLEWIGEINHAGSTNYNPSLKSRITISVDTSKNQFSLKLSSVTAADTAVYYCARGWYYGSGSYHRNWFDPWGQGTLVTVSSASTKGPSVFPLAPCSRSTSESTAALGCLVKDYFPEPVTVSWNSGALTSGVHTFPAVLQSSGLYSLSSVVTVPSSSLGTKTYTCNVDHKPSNTKVDKRV[human IgG4 Fc with S228P (EU numbers) left out here]
light: LLQGSGEIVLTQSPGTLSLSPGERATLSCRASQSVYYSYLAWYQQKPGQAPRLLIYGASNRATGIPDRFSGSGSGTDFTLTISRLEPEDFAVYYCQQYGNSPWTFGQGTKVEIKRTVAAPSVFIFPPSDEQLKSGTASVVCLLNNFYPREAKVQWKVDNALQSGNSQESVTEQDSKDSTYSLSSTLTLSKADYEKHKVYACEVTHQGLSSPVTKSFNRGEC
B2: REGN9278 unconjugated Ab (antibody)
heavy: B1 heavy
light: B1 light

Legend:
[1] = target: T1, hGLP1R-MMH (N-terminal region of human GLP1R) (Homo sapiens, UniProt P43220); experiment: Biacore binding kinetics (surface plasmon resonance); conditions: 25° C.
T1 construct: the N-terminal ectodomain of human GLP1R expressed with a myc-myc hexahistidine tag
T1 sequence (P43220 24-139 limits assumed): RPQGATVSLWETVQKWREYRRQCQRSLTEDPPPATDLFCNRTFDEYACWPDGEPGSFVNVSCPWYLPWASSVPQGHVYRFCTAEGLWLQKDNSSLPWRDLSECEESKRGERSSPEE
Procedure: The equilibrium dissociation constant (KD) for GLP1R binding to different unconjugated GLP1R monoclonal antibodies (mAbs) or to GLP1R antibody tethered drug conjugates (ATDCs) was determined using a real-time surface plasmon resonance biosensor using a Biacore 3000, Biacore S200, Biacore 4000, Biacore T-200, or a Sierra Sensor MASS-2 instrument. All binding studies were performed in 10 mM HEPES, 150 mM NaCl, 3 mM EDTA, and 0.05% v/v Surfactant Tween-20, pH 7.4 (HBS-ET) running buffer at 25° C. The Biacore CM5 sensor chip surface was first derivatized by amine coupling with human Fc specific mouse mAb (REGN2567) to capture different GLP1R mAbs or ATDCs. Different concentrations (100, 90, 33.3, 30, 11.1, 10, 3.7, 3.3 and 1.1 nM) of the N-terminal region of human GLP1R expressed with a myc-myc-hexahistidine tag (“hexahistidine tag” disclosed as SEQ ID NO: 441) (hGLP1R-MMH) prepared in HBS-ET running buffer were injected over the GLP1R mAb captured surface for 240 or 300 sec at a flow rate of 50 μL/min and their dissociation in HBS-ET running buffer was monitored for 10 minutes. […]
The association rate (ka) and dissociation rate (kd) were determined by fitting the real-time binding sensorgrams to a 1:1 binding model with mass transport limitation using Scrubber 2.0c curve-fitting software. […]

HEK293/CRE-Luc cells = experiment: Flow cytometry cell binding, HEK293/CRE-Luc control cells (Example 18); design: species or system human; conditions: Table 30, control cells lacking GLP1R
Procedure: GLP1R agonist linker payloads were conjugated to anti-GLP1R antibodies via N-terminal heavy or light chain Glutamine (Q) tags. Several resulting anti-GLP1R-GLP1R agonist antibody tethered drug conjugates (ATDCs) and their unconjugated parental antibodies were tested for cell-based binding activity. The cell surface binding of the anti-GLP1R ATDCs to human GLP1R (HEK293/CRE-Luc/hGLP1R), cynomolgus GLP1R (HEK293/CRE-Luc/mfGLP1R), and control cells lacking expression of GLP1R (HEK293/CRE-Luc) was assessed via flow cytometry. For the assay, 61,000-230,000 cells were suspended in PBS, w/2% FBS and 0.2% sodium azide (staining buffer) in 96 well V-bottom plates and incubated for 30 minutes at 4° C. with three-fold serial dilutions of the anti-GLP1R ATDCs, non-binding control ATDCs, or unconjugated anti-GLP1R antibodies. […] Samples were run on the iQue flow cytometer (Intellicyte) and results were analyzed using Forecyte analysis software (Intellicyte) to calculate the mean fluorescent intensity (MFI) after gating for live cells. EC50 values were determined using a four-parameter logistic equation over a 10-point dose response curve (GraphPad Prism). The signal to noise (S/N) was determined by taking the ratio of the highest MFI on the dose response curve to the MFI in the secondary alone wells.

| Molecule | Ka ([1]; association rate) [M⁻¹ s⁻¹] | dissociation rate constant (kd) ([1]; dissociation rate) [s⁻¹] | EC50 (HEK293/CRE-Luc cells; no unit printed in table (text reads values as M)) [nM] | HEK293/CRE-Luc Flow S/N (HEK293/CRE-Luc cells; signal to noise) |
| --- | --- | --- | --- | --- |
| B1 | 116000 | 0.000127 |  |  |
| B2 |  |  | > 100 | 11.9 |

From patent US20230330254A1 (Regeneron Pharmaceuticals, Inc., priority 2022, published 2023)
